This note sets out measurements from the BET-seq Pho4 binding data (Le et al. 2018).

This is one part of the list. These are noisy estimates, calculated here from bound and input reads.

The target in this assay is T1, Pho4 (S. cerevisiae) (UniProt P07270).
T1 sequence: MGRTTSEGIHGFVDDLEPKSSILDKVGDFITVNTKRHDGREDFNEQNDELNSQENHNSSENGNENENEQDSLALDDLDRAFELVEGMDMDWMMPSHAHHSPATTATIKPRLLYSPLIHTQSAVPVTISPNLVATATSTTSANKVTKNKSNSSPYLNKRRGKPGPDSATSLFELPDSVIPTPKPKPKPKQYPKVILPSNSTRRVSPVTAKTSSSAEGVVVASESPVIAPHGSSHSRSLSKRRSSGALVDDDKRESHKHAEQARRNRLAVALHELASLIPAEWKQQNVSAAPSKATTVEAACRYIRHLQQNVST
Nature of the assay: relative binding free energy (BET-seq); higher = weaker binding. The settings on record: reference: library average.
Regarding TAATGCACGTGTAAAG, the “relative binding free energy” value was determined as 0.05 kcal/mol.

For the sequence AATTACACGTGGTGTC, the “relative binding free energy” value was 0.08 kcal/mol.

Turning to GATGGCACGTGAGGAA, the “relative binding free energy” value was determined as 0.23 kcal/mol.

As to GTGGTCACGTGTTCTT, the “relative binding free energy” value is 0.2 kcal/mol.

Consider TGAAGCACGTGTGAGG, for which the “relative binding free energy” value is -0.01 kcal/mol.

On to AGATACACGTGTGCTG, for which the “relative binding free energy” value is 0.09 kcal/mol.

In the case of AAGGTCACGTGATGGT, the “relative binding free energy” value came to 0.18 kcal/mol.

As to TGTTTCACGTGCGCAG, the “relative binding free energy” value came to 0.15 kcal/mol.

For CATTGCACGTGTGGGT, the “relative binding free energy” value was -0.02 kcal/mol.

On to ATGGACACGTGAGAGT, for which the “relative binding free energy” value came out at 0.13 kcal/mol.

On to CTTGTCACGTGCGTGT, for which the “relative binding free energy” value is -0.09 kcal/mol.

For the sequence AGAATCACGTGGGGAT, the “relative binding free energy” value was 0.06 kcal/mol.

GGTAGCACGTGGTAAG: the “relative binding free energy” value is -0.18 kcal/mol.

As to AGTGACACGTGATTAG, the “relative binding free energy” value is 0.09 kcal/mol.

For the sequence GGCGACACGTGATTTG, the “relative binding free energy” value was 0.22 kcal/mol.

Turning to AGCAGCACGTGGTTTG, the “relative binding free energy” value is -0.04 kcal/mol.

For GAGCACACGTGGGGTG, the “relative binding free energy” value is -0.13 kcal/mol.

In the case of GTTTCCACGTGGTAGG, the “relative binding free energy” value came to 0.05 kcal/mol.

Turning to GTGGCCACGTGAAGGA, the “relative binding free energy” value came to 0.38 kcal/mol.

Turning to GGTACCACGTGTAGTG, the “relative binding free energy” value is 0.06 kcal/mol.

AATGTCACGTGTAGCG: the “relative binding free energy” value amounted to 0.12 kcal/mol.

For the sequence GTTATCACGTGTATCA, the “relative binding free energy” value turned out to be 0.21 kcal/mol.

For the sequence AGCAACACGTGGGTTT, the “relative binding free energy” value turned out to be 0 kcal/mol.

Turning to TAGGGCACGTGAGGAA, the “relative binding free energy” value stood at 0.11 kcal/mol.

Regarding ATGGCCACGTGTGTAG, the “relative binding free energy” value was found to be 0.05 kcal/mol.

For GGATGCACGTGAAATG, the “relative binding free energy” value amounted to 0.27 kcal/mol.

For the sequence GGAGCCACGTGTGTGT, the “relative binding free energy” value is -0.06 kcal/mol.

On to AGCCGCACGTGGGGGG, for which the “relative binding free energy” value was -0.29 kcal/mol.

Consider TTTAACACGTGGGCGT, for which the “relative binding free energy” value is -0.17 kcal/mol.

Take TTCGGCACGTGAGAGT: the “relative binding free energy” value worked out at 0.24 kcal/mol.

As to GAGGGCACGTGGAGGA, the “relative binding free energy” value was -0.04 kcal/mol.

Regarding ATGGGCACGTGTGGGG, the “relative binding free energy” value was determined as 0.01 kcal/mol.

Take GCTTCCACGTGTGTGT: the “relative binding free energy” value is 0.01 kcal/mol.

As for ATGAGCACGTGGATTT, the “relative binding free energy” value was -0.01 kcal/mol.

In the case of GTAGGCACGTGTAAGA, the “relative binding free energy” value turned out to be 0.15 kcal/mol.

In the case of ATGGTCACGTGGGATA, the “relative binding free energy” value is -0.09 kcal/mol.

Consider TCTGTCACGTGGTTCA, for which the “relative binding free energy” value came out at 0.02 kcal/mol.

With CGAAGCACGTGGTAGT, the “relative binding free energy” value was -0.04 kcal/mol.

Regarding GTATACACGTGTAGAG, the “relative binding free energy” value came out at 0.1 kcal/mol.

In the case of ATATTCACGTGGGTAG, the “relative binding free energy” value was determined as 0.11 kcal/mol.

Turning to GATTACACGTGAGTGG, the “relative binding free energy” value is 0.33 kcal/mol.

For the sequence GTGCTCACGTGAGGGT, the “relative binding free energy” value came to 0.33 kcal/mol.

Turning to GTTGCCACGTGCGGGC, the “relative binding free energy” value is -0.02 kcal/mol.

Take ATTTACACGTGGGAGA: the “relative binding free energy” value was 0.19 kcal/mol.

On to TGGGTCACGTGGCTGT, for which the “relative binding free energy” value was determined as 0.02 kcal/mol.

Consider TGGACCACGTGTGATG, for which the “relative binding free energy” value was found to be 0.02 kcal/mol.

Take TGTGGCACGTGGGCCC: the “relative binding free energy” value is -0.17 kcal/mol.

For TGTTCCACGTGTGTGG, the “relative binding free energy” value was found to be 0.03 kcal/mol.

Regarding TAGAACACGTGTTTGT, the “relative binding free energy” value is 0.03 kcal/mol.

GTTGACACGTGCTAGG: the “relative binding free energy” value was -0.08 kcal/mol.

Turning to AAGATCACGTGTGTAA, the “relative binding free energy” value was found to be 0.24 kcal/mol.

On to ATTCTCACGTGAGAGG, for which the “relative binding free energy” value is 0.3 kcal/mol.

Turning to TATTGCACGTGGTGCA, the “relative binding free energy” value was -0.08 kcal/mol.

GAAGGCACGTGCGGGG: the “relative binding free energy” value was -0.22 kcal/mol.

With ATTGACACGTGTGGAG, the “relative binding free energy” value is -0.03 kcal/mol.

For AATGTCACGTGGGTCT, the “relative binding free energy” value amounted to 0.03 kcal/mol.

With GGTTACACGTGCCTGG, the “relative binding free energy” value is 0.05 kcal/mol.

Take TCGGGCACGTGACTTT: the “relative binding free energy” value turned out to be 0.12 kcal/mol.

In the case of AGTTGCACGTGCATTA, the “relative binding free energy” value was -0.08 kcal/mol.

For the sequence GTAAGCACGTGTCGTG, the “relative binding free energy” value is -0.06 kcal/mol.

Consider AATGGCACGTGCGTGA, for which the “relative binding free energy” value was -0.18 kcal/mol.

In the case of AGCAGCACGTGGGAGG, the “relative binding free energy” value was -0.26 kcal/mol.

As for GTTGCCACGTGGGTGA, the “relative binding free energy” value is -0.17 kcal/mol.

For GGAGACACGTGGGTAA, the “relative binding free energy” value was -0.01 kcal/mol.

As for TGTGTCACGTGCGTTG, the “relative binding free energy” value is -0.05 kcal/mol.

Take TTAGTCACGTGCAGTG: the “relative binding free energy” value is 0.12 kcal/mol.

In the case of CCTGGCACGTGGTATT, the “relative binding free energy” value is -0.15 kcal/mol.

In the case of TGCTCCACGTGTGTTT, the “relative binding free energy” value was -0.03 kcal/mol.

Consider CTATGCACGTGGTAGG, for which the “relative binding free energy” value was -0.23 kcal/mol.

Take GTTAGCACGTGTGCGT: the “relative binding free energy” value was -0.08 kcal/mol.

Regarding GGGGGCACGTGACAAG, the “relative binding free energy” value was -0.18 kcal/mol.

In the case of AAGTTCACGTGTACGG, the “relative binding free energy” value stood at 0.25 kcal/mol.

For TATTCCACGTGTGGCG, the “relative binding free energy” value is 0.09 kcal/mol.

In the case of TGTAGCACGTGGACTG, the “relative binding free energy” value was -0.18 kcal/mol.

For the sequence TGAGACACGTGGTGGA, the “relative binding free energy” value was -0.08 kcal/mol.

Take TGCGGCACGTGTAAAG: the “relative binding free energy” value came out at 0.02 kcal/mol.

Take CATGTCACGTGTAATG: the “relative binding free energy” value came out at 0.21 kcal/mol.

TTTATCACGTGATCAT: the “relative binding free energy” value was found to be 0.33 kcal/mol.

For GGCTTCACGTGGTGGC, the “relative binding free energy” value was 0.22 kcal/mol.

On to AATATCACGTGTGTCT, for which the “relative binding free energy” value was found to be 0.2 kcal/mol.

For the sequence CAGGGCACGTGTGCGG, the “relative binding free energy” value was -0.1 kcal/mol.

For ACAATCACGTGTTAGG, the “relative binding free energy” value was found to be 0.21 kcal/mol.

On to CTTAGCACGTGGTCGT, for which the “relative binding free energy” value is -0.1 kcal/mol.

Take ACGGGCACGTGTAGAG: the “relative binding free energy” value was -0.09 kcal/mol.

On to TAGTGCACGTGGTTGG, for which the “relative binding free energy” value is -0.06 kcal/mol.

Take TAAGTCACGTGTGAGC: the “relative binding free energy” value was 0.18 kcal/mol.

Regarding AAGTGCACGTGAGTTT, the “relative binding free energy” value is 0.21 kcal/mol.

On to ACGCTCACGTGGTTGG, for which the “relative binding free energy” value turned out to be 0.14 kcal/mol.

In the case of AGGCACACGTGGTTAT, the “relative binding free energy” value is 0.03 kcal/mol.

In the case of TTTTACACGTGAGGCT, the “relative binding free energy” value turned out to be 0.39 kcal/mol.

Regarding GGGAGCACGTGGATTG, the “relative binding free energy” value is 0.12 kcal/mol.

For TAGTTCACGTGGGCAG, the “relative binding free energy” value was 0.18 kcal/mol.

TAAACCACGTGGTGGG: the “relative binding free energy” value was -0.13 kcal/mol.

With GTAGTCACGTGGAGTT, the “relative binding free energy” value came to 0.13 kcal/mol.

In the case of GTTGGCACGTGCTCGT, the “relative binding free energy” value is -0.09 kcal/mol.

GGATTCACGTGGCGAT: the “relative binding free energy” value turned out to be 0.28 kcal/mol.

Turning to AGAGTCACGTGGGTGC, the “relative binding free energy” value is -0.21 kcal/mol.

Consider CTAGGCACGTGGCGGA, for which the “relative binding free energy” value was -0.21 kcal/mol.

In the case of AGTTGCACGTGTAGAG, the “relative binding free energy” value was 0.01 kcal/mol.

For GTTCGCACGTGTTCTG, the “relative binding free energy” value stood at 0 kcal/mol.

In the case of AATGTCACGTGAGTTA, the “relative binding free energy” value was found to be 0.26 kcal/mol.

Consider GTGGACACGTGAGTGG, for which the “relative binding free energy” value came out at 0.36 kcal/mol.

As for GATCTCACGTGGGGTT, the “relative binding free energy” value was found to be 0.24 kcal/mol.

Turning to GTGGACACGTGGTTGC, the “relative binding free energy” value worked out at 0.09 kcal/mol.

With GTTGGCACGTGGGCGT, the “relative binding free energy” value is -0.25 kcal/mol.

With AAGGGCACGTGTTATT, the “relative binding free energy” value is -0.16 kcal/mol.

As to TGTGCCACGTGGGTGT, the “relative binding free energy” value was -0.26 kcal/mol.

In the case of GCAGGCACGTGAGGAG, the “relative binding free energy” value was determined as 0.06 kcal/mol.

TATGGCACGTGGTTAA: the “relative binding free energy” value was -0.13 kcal/mol.

For the sequence AAAGTCACGTGATATT, the “relative binding free energy” value stood at 0.22 kcal/mol.

Take GGGATCACGTGTGTGG: the “relative binding free energy” value is 0.27 kcal/mol.

As for TGAGCCACGTGTTATT, the “relative binding free energy” value came out at 0.05 kcal/mol.

In the case of TTGTGCACGTGTGAGG, the “relative binding free energy” value was 0.13 kcal/mol.

Consider AATATCACGTGGTGTC, for which the “relative binding free energy” value was 0.05 kcal/mol.

As for TTATTCACGTGGTCGG, the “relative binding free energy” value was 0.05 kcal/mol.
